Experimental findings from the RNAGym collection of RNA variant scans (doi:10.1073/pnas.2313332121) are described below.

B1: TPR 5TU (parent)
chain: GGAUCUUCUCGAUCUAACAAAAAAGACAAAUCUGCCACAAAGCUUGAGAGCAUCUUCGGAUGCAGAGGCGGCAGCCUUCGGUGGCGCGAUAGCGCCAACGUUCUCAACUAUGACACGCAAAACGCGUGCUCCGUUGAAUGGAGUUUAUCAUG

Variants at the floor of the assay are shown more often than the library holds them.

In this series the parent is B1. Briefly: polymerase ribozyme fitness, log enrichment relative to wild type (log ratio); higher = more active; in vitro selection for triplet polymerase activity. In a few lines: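 Only genotypes with ≥10 input reads and ≥1 read per output were kept after Illumina sequencing of input and output libraries. These libraries were PCR-built, transcribed mutants of each subunit of a heterodimeric triplet polymerase ribozyme, each put through one triplicate in vitro selection round with frozen incubation at −7 °C, gel excision of extended constructs, streptavidin-bead capture and RT-PCR. Fitness is a logarithmic ratio of genotype enrichment to wild-type enrichment, from inverse-variance-weighted replicate averages, with the logarithm in base 2.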
For GGAUCUUCUCGAUCUAACAAAAAAGACAAAUCUGCCACAAAGCUUGAGAGCAUCUUCGUAUGCAGAGGCGGCAGACUUCGGUGGCGCGAUAGCGCGAACGUUCUCAACUAUGACACGCAAAACGCGUGCUCCGUUGAAUGGAGUUUAUCAUG, the “polymerase ribozyme fitness (log ratio)” value was at most -4.2.
Under GGAUCUUCUCGAUCUAACAAAAAAGACAAAUCUGCCACAAAGCUUGAGAGCAUCUUCGCAUGCAGAGGCGGCAGCCUUCGGUGGCGCGAUAGCGCCAACGUUCUCAACUAUGACACGCAAAACACGUGCUCCGUUGAAUGGAGUUUAUCAUG stands -1.57; under GGAUCUUCUCGAUCUAACAAAAAAGACAAAUCUGCCACAAAGCUUGAGAGCAUCUUCGUAUGCAGAGGAGGCAGCCUUCGGUGGCGCGAUAGCGCCAACGUUCACAACUAUGACACGCAAAACGCGUGCUCCGUUGCAUGGAGUUUAUCAUG, at most -4.2.
Consider GGAUCUUCUCGAUCUAACAAAAAAGACAAAUCUGCCACAAAGCUUGAGAGCAUCUUCGCAUGCAGAGACGGCAGCCUUCGGUGGAGCGAUAGCGCCAACGUUCUCAACUAUGACACGCAAAACGCGUGCUCCGUUGAAUGGAGUUUAUCACG, for which the “polymerase ribozyme fitness (log ratio)” value was at most -4.2.
For GGAUCUUCUCGAUCUAACAAAAAAGACAAAUCUGCCACAAAGCUUGAGAGCAUCUUCGCAUUCAGAGGCGGCAGCCUUCGGUGGCGCGAUAGCGCCAACGUGCUCAACUAUGACACGCAAAACGCGUGCUCCCUUGAAUGGAGUUUAUCAUG, the “polymerase ribozyme fitness (log ratio)” value is at most -4.2.
On to GGAUCUUCUCGAUCUAACAAAAAAGACAAAUCUGCCACAAAGCUUGAGAGCAUCUUCGUAUGCAGAGGUGGCAGCCUUCGGUGGCGGGAUAGCGCCAACGUUCUGAACUAUGACACGCAAAACGCGUGAUCCGUUGAAUGAAGUUUAUCAUG, for which the “polymerase ribozyme fitness (log ratio)” value is at most -4.2.
Consider GGAUCUUCUCGAUCUAACAAAAAAGACAAAUCUGCCACAAAGCUUGAGAGCAUCUUCGGCUGCGGAGGCGGCAGCCUUCAGUGGCGCGAUAGCGCCAAGGUUCUCAACUAUGACACGCAAAACGCGUGCUCCGUUGAAUGGAGUUUAUCAUG, for which the “polymerase ribozyme fitness (log ratio)” value was at most -4.2.
For GGAUCUUCUCGAUCUAACAAAAAAGACAAAUCUGCCACAAAGCUUGAGAGCAUCUUCGUAUGCAGAGGGGGCAGCCUUCGGUGGCGCGAUAGCGCCAACGUUCUCAACUAUGACACGCAAAACGCGUGCUCCGUUGAAUGGAGUUUAUCAUG the value was -1.07; for GGAUCUUCUCGAUCUAACAAAAAAGACAAAUCUGCCACAAAGCUUGAGAGCAUCUUCGUAUGCAGAGGCGGCAGCCUUCGGUGGCGCGAUAGUGCCAACGUUCUCAACUAUGAGACGCAAAACGCGUGCUCCGUUGAAUGGAGUUUAUCAUG, -3.92.
In the case of GGAUCUUCUCGAUCUAACAAAAAAGACAAAUCUGCCACAAAGCUUGAGAGCAUCUUCGUAUGCAGAGGCGGCAGCCUUCGGUGGCGGGAUAGCGCCAACGUUCUCAACUAUGACACGCAAAACGCGUGCUCCGUUGAAUGGAGUUUAUCAUG, the “polymerase ribozyme fitness (log ratio)” value is at most -4.2.
Under GGAUCUUCUCGAUCUAACAAAAAAGACAAAUCUGCCACAAAGCUUGAGAGCAUCUUCGCAUGCAGAGGCGGCAGCCUUCGGUGGCACGAUAGCGCCAACGUUCUCAACUAUGACACGCAAAACGCGUGCUCCGUUGAAUGGAGUUUAUCAUG stands -2.61; under GGAUCUUCUCGAUCUAACAAAAAAGACAAAUCUGCCACAAAGCUUGAGAGCAUCUUCGCAUGCAGAGGCGGCAACCUUCGGUGGCGCGAUAGCGCCAACGUUCUCAACUAUGACACGCAAAACGCGUGCUCCGUAGAAUGGAGUUUAUCAUG, at most -4.2.
On to GGAUCUUCUCGAUCUAACAAAAAAGACAAAUCUGCCACAAAGCUUGAGAGCAUCUUCGUAUGCAGAGGCGGCAGCCUUCGGUGGCGCGAAAGCGCCAACGUUCUCAACUAUGACACACAAAACGCGUGCUCCGUUGAAUGGAGUUUAUCAUG, for which the “polymerase ribozyme fitness (log ratio)” value was at most -4.2.
Under GGAUCUUCUCGAUCUAACAAAAAAGACAAAUCUGCCACAAAGCUUGAGAGCAUCUUCGCAUGCAGAGGCGGCAGCCUUCGAUGGCGCGAUAGCGCCAACGUUCUCAACUAUGACACGCAAAACGCGUGCUCCGUUGAAUGGAGUUUAUCAUG stands -2.07.
For GGAUCUUCUCGAUCUAACAAAAAAGACAAAUCUGCCACAAAGCUUGAGAGCAUCUUCGUAUGCAGAGGCGGCAGCCUUCGGUGGCGCGAUAGCGCCAACGUUCUCAACUAUGACACGCAAAACGCGUGCUCCGUUGAACGGAGUUUAUCAUG the value was -3.8.
Under GGAUCUUCUCGAUCUAACAAAAAAGACAAAUCUGCCACAAAGCUUGAGAGCAUCUUCGUAUGCAGAGGCGGCAGCCUUCGGUGGCGCGAUAGCGCCAACGUUCUCAACUAUGACACGCAAAACGCGUGCUCCGUUGAAUGGAGUUUAUCAUC stands -2.8.
For the variant GGAUCUUCUCGAUCUAACAAAAAAGACAAAUCUGCCACAAAGCUUGAGAGCAUCUUCGUAUGCAGAGGCGGCAGUUUUCGGUGGCGCGAUAGGGCCAACGUUCUCAACUAUGACUCGCAAAACGCGUGCUCCGUUGAAUGGAGUUUAUCAUG, the “polymerase ribozyme fitness (log ratio)” value is at most -4.2.
Regarding GGAUCUUCUCGAUCUAACAAAAAAGACAAAUCUGCCACAAAGCUUGAGAGCAUCUUCGGCUGCAGAGGCGGCGGCCUUCGGUGGCGCGAUAGCGCUAACGGUCUCAACUAUGACACGCAAAACGCGUGCUCCGUUGAAUGGAGUUUAUCAUG, the “polymerase ribozyme fitness (log ratio)” value was -3.45.
Under GGAUCUUCUCGAUCUAACAAAAAAGACAAAUCUGCCACAAAGCUUGAGAGCAUCUUCGUAUGCAGAGGCGGCGGCCUUCGGUGGCGCGAUAGCGCCAACGUUCUCAACUAUGACACGCAAAACGCGUGCUCCGUUGAAUGGAGUUUAUCAUG stands -0.629; under GGAUCUUCUCGAUCUAACAAAAAAGACAAAUCUGCCACAAAGCUUGAGAGCAUCUUCGGCUGCAGAGGCGGCUGCCUGCGGUGGCGCGAUAGCGCCAACGUUCUCAACUAUGACACGCAAAACGCGUGCUCCGUUGAAUGGAGUUUAUUAUG, at most -4.2; under GGAUCUUCUCGAUCUAACAAAAAAGACAAAUCUGCCACAAAGCUUGAGAGCAUCUUCGUAUGCAGAGGCGGCAGCCUUCGGUGGCGCGAGGGCGACAACGUUCUCAACUAUGACACGCAAAACGCCUGCUCCGUUGAAUGGAGUUGAUCAUG, at most -4.2.
For GGAUCUUCUCGAUCUAACAAAAAAGACAAAUCUGCCACAAAGCUUGAGAGCAUCUUCGCAUGCAGAGGCGGCAGCCUUCGGUGGCGCGAUAGCCCCAACGUUCUCAACUAUGACACGCCAAACGCGUGCUCCGUUGAAUGGAGUUGAUCAUG the value was -1.61.
As to GGAUCUUCUCGAUCUAACAAAAAAGACAAAUCUGCCACAAAGCUUGAGAGCAUCUUCGUAUGCAGAGGCGGCAGCCUUCGGUGGCGCGAUAGGGCCAACGUUCUCAACUAUGACACGCAAAACGCGUGCUCCGUUGAGUGGAGUUUAUCAUG, the “polymerase ribozyme fitness (log ratio)” value was at most -4.2.
For GGAUCUUCUCGAUCUAACAAAAAAGACAAAUCUGCCACAAAGCUUGAGAGCAUCUUCGUAUGCAGAGGCGGCAGCCUUCGGUGGCGCGAUAGCGCCAACGUUCUCAACUAUGACACGCAAAACGCGUGCUCCGUUGAAUGGAGUUUACCAUG the value was -1.18.
For the variant GGAUCUUCUCGAUCUAACAAAAAAGACAAAUCUGCCACAAAGCUUGAGAGCAUCUUCGUAUGCAGAGGCGGCAGCCUUCGGUGGCGCGAUAGAGCCAACGUUCUCAACUAUGACACGCAAAACGCGUGCUCCAUUGAUUGAAGUUUAUCAUG, the “polymerase ribozyme fitness (log ratio)” value was at most -4.2.
Take GGAUCUUCUCGAUCUAACAAAAAAGACAAAUCUGCCACAAAGCUUGAGAGCAUCUUCGCAUGCAGAGGCGGCAGCCUUCGGUGGCGCGAUAGCGCCAACGUUCUCAACUAUGACACGCAAAACGCGGGCCCCGUUGAAUGGAGUUUAUCAUG: the “polymerase ribozyme fitness (log ratio)” value was at most -4.2.
Under GGAUCUUCUCGAUCUAACAAAAAAGACAAAUCUGCCACAAAGCUUGAGAGCAUCUUCGCAUGCAGAGGCGGCAGCCUUCGGUGGCGCGAUAGCGCCAACGGUCUCAACUAUGACACGCAAAACGCGUGCUCCGUUGAAUGGAGUUUAUCAUG stands -0.121; under GGAUCUUCUCGAUCUAACAAAAAAGACAAAUCUGCCACAAAGCUUGAGAGCAUCUUCGCAUGCAGAGGCGGCAGCCUUCGGUGGCGCCAUAGCGCCAACGUUCUCUAUUAUGACACGCAAAACGCGUGCUCCGUUGAAUGGAGUUUAUCAUG, at most -4.2.
Regarding GGAUCUUCUCGAUCUAACAAAAAAGACAAAUCUGCCACAAAGCUUGAGAGCAUCUUCGUAUGCAGAGGCGGCAGCCUUCGGUGGAGCGAUAGCGCCAACGUUCUCAACUAUGACACGCAAAACGCGUGCUCCGUUGAAUUGAGUUUAUCAGG, the “polymerase ribozyme fitness (log ratio)” value was at most -4.2.
As for GGAUCUUCUCGAUCUAACAAAAAAGACAAAUCUGCCACAAAGCUUGAGAGCAUCUUCGCAUGCAGAGGCGGCAGCCUUCGGGGGCGCGUUAGCGCCAACGUUCUAACCUAUGACACGCAAAACGCGUGCUCCGUUGAAUGGAGUUUAUCAUG, the “polymerase ribozyme fitness (log ratio)” value is at most -4.2.
For GGAUCUUCUCGAUCUAACAAAAAAGACAAAUCUGCCACAAAGCUUGAGAGCAUCUUCGCAUGCAGAGGCGACAGCCUUCGGUGGCGCGAUAGCGCCAACGUUCUCAACUAUGACGCGCAAAACGCGUGCUCCGUUGAAUGGAGUUUAUCAUG, the “polymerase ribozyme fitness (log ratio)” value is -4.09.
Under GGAUCUUCUCGAUCUAACAAAAAAGACAAAUCUGCCACAAAGCUUGAGAGCAUCUUCGCAUGCAGAGGCGGCAGCCUUCGGUGGCUCGAUAGCGCCAACGUUCUCAUCUAUGGUACGCAAAACGCGUGCUCCGUUGAAUGGAGUUUAUCAUG stands at most -4.2; under GGAUCUUCUCGAUCUAACAAAAAAGACAAAUCUGCCACAAAGCUUGAGAGCAUCUUCGUAUGCAGAAGCGACAACCUUCGGUGGAGCGAUAGCGCCAACGUUCUCAACUAUGACACGCAAAACGCGUGCUCCGUUGAAUGGAGUUUAUCAUG, at most -4.2.
Under GGAUCUUCUCGAUCUAACAAAAAAGACAAAUCUGCCACAAAGCUUGAGAGCAUCUUCGCAAGCAGAGGCGGCAGCCGUCGGUGGCGCGAUAGCGCUAACGUUCUCAACUAUGACACGCAAAACGCGUGCUCCGUUGAAUGGAGUUUAUCAUG stands at most -4.2; under GGAUCUUCUCGAUCUAACAAAAAAGACAAAUCUGCCACAAAGCUUGAGAGCAUCUUCGCAUGCAGAGCCUGCAGCCUUCGGUGGCGCGAUAGCGCCAACGUUCUCAACUAUGACACGCAAAACGCGUGCUCCGUUGAAUUGAGUUUAUCAUG, at most -4.2.
For GGAUCUUCUCGAUCUAACAAAAAAGACAAAUCUGCCACAAAGCUUGAGAGCAUCUUCGUAUGCAGAGACGGCAGCCUCCGGUGGCGCGAUAGGGCCAACGUUCUCAACUAUGACACGCAAAACACGUGCUGCGUUGAAUGUAGUUUAUCAUG the value was at most -4.2; for GGAUCUUCUCGAUCUAACAAAAAAGACAAAUCUGCCACAAAGCUUGAGAGCAUCUUCGCAUGCAGAGGCGGCAGCCUUCGGUGGCGCGAUAGCGCCAACGUUCUCAACUAUGACACGCAAAACGCUUGCUCCGUUGAAUGGAGUUUAUCAUG, 0.134; for GGAUCUUCUCGAUCUAACAAAAAAGACAAAUCUGCCACAAAGCUUGAGAGCAUCUUCGUAUGCAGAGGCGGCAGCCUUCGGUGGCGUGAUAGCGCCAACGUUCUCAAUUAUGACACGCAAAACGAGUGCUCCGUUGAAUGGAGUUUAUCAUG, -3.4.
